From PubChem BioAssay AID602310 (National Center for Advancing Translational Sciences (NCATS), 2012)
Where “and” joins values, the source holds several entries; their conditions need not be identical. Identical values can stand only once. Hit rate of the full screen: of about 410,000 compounds, about 310 (0.076%) were called active. The inconclusive results got no clear call from the source; some entries with a clear call stand among them for comparison. The call rests on the fitted dose curve; in most records, active means well fitted curve in the direction sought with a large enough effect; inconclusive means small, poorly fitted or top-dose-only effect; inactive means flat fitted curve, though single readings scatter. Where the call is inconclusive, the potency comes from a doubtful curve fit.

Target: DNA dC->dU-editing enzyme APOBEC-3G (Homo sapiens) (UniProt Q9HC16)
Test: qHTS for Inhibitors of Vif-A3G Interactions: qHTS; further: nearly all actives have a fitted effect of over 60% in size;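 on activity, negative = active: hits raise eYFP signal because A3G escapes Vif-driven loss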
Conditions: HeLa A3G-eYFP + Vif (tagged APOBEC3G with the HIV-1 protein that degrades it), YFP fluorescence, overnight; series mostly up to 46.1 µM; activity, negative = active: at the top concentration
Method in brief: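 Read-out is eYFP fluorescence (Ex 488/Em 500-530) from Vif-expressing HeLa A3G-eYFP cells; more signal means A3G escaped Vif-mediated degradation. Cells plated overnight, compound pinned in, incubated overnight at 37 deg C.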
On the % scale 0 is the no-effect control and ±100 the full control effect; potency means the concentration at half of the fitted maximal effect; tags describe the fitted curve by direction and shape.

UniProt Q9HC16, sequence (Q9HC16 whole entry, looked up): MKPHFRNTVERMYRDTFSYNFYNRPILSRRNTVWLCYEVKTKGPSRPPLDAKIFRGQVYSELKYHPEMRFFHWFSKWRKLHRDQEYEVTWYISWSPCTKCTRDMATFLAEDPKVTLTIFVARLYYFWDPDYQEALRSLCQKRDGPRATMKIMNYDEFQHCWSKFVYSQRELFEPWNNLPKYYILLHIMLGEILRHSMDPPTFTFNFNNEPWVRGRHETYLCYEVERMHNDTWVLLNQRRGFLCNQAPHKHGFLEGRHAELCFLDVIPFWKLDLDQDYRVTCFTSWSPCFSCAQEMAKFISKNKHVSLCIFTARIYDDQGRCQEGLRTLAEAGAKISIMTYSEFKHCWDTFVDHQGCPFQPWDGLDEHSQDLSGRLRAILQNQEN

| SMILES | activity, negative = active | Potency |
| --- | --- | --- |
| O=C(/C=C/c1ccco1)Nc1ccc(C(=O)N2CCOCC2)cc1 | inactive: -3.68% |  |
| Cc1nc([N+](=O)[O-])c(Br)n1CC(=O)c1ccc(F)cc1 |  | inconclusive: 20 µM [inhibitor, single point] |
| COc1cccc(CNc2nc3cc(-c4ccc(OC)c(OC)c4)sc3c(=O)n2C)c1 |  | inconclusive: 25.1 µM [inhibitor, single point] |
| Cc1ccc(-c2cc(C(=O)N3N=C(C(F)F)CC3(O)C(F)F)c3ccccc3n2)cc1C (stereo not drawn) |  | inconclusive: 22.4 µM [inhibitor, single point] |
| CN1CC(=O)NC1=NC(=O)c1cc(F)c(F)cc1Cl |  | inconclusive: 35.5 µM [inhibitor, single point] |
| COc1ccccc1CNC(=O)COC(=O)c1cc(-c2ccco2)nc2ccccc12 | inactive: -0.278% |  |
| CCC(=O)NC1=C(NC(C)c2ccccc2)C(=O)c2ccccc2C1=O (stereo not drawn) | inactive: -1.46% |  |
| O=C(c1ccccc1)c1nn(-c2ccccc2)c(=O)cc1C(F)(F)F |  | inconclusive: 35.5 µM [inhibitor, single point] |
| COc1ccc(-c2sc3ccc(N4CCOCC4)cc3c2C#CC2(O)CCCCC2)cc1 |  | inconclusive: 35.5 µM [inhibitor, single point] |
| CN(C)CCNC(=O)c1cccc2ccc(-c3ccc(-c4ccccc4)cc3)nc12 | inactive: -5.01% |  |
| Cc1cc2c(cc1C)C(=O)C(Br)=C(N)C2=O | inactive: -8.47% |  |
| COc1ccc2c(c1)c(=O)c(C(=O)c1ccc(F)cc1)cn2CC(=O)Nc1ccc2c(c1)OCCO2 |  | inconclusive: 25.1 µM [inhibitor, single point] |
| CO/N=C1\CCCc2c(C(=O)NN)sc(SC)c21 |  | inconclusive: 22.4 µM [inhibitor, single point] |
| COc1cc(C2=NOC(C(=O)NCc3ccco3)C2)cc(OC)c1OC (stereo not drawn) |  | inconclusive: 10 µM [inhibitor, partial curve, poor fit] |
| COc1cc(-c2noc(C)c2/C=C/c2ccc(OC(C)=O)cc2)cc(OC)c1OC |  | inconclusive: 39.8 µM [inhibitor, partial curve, poor fit] and inconclusive: 17.8 µM [inhibitor, partial curve, poor fit] |
| CC(=O)c1cc(C#N)c(SCc2ccccc2C#N)nc1C |  | inconclusive: 10 µM [inhibitor, partial curve] |
| C=CC[C@H](CC(=O)N[C@H](CO)Cc1ccccc1)C(=O)N[C@H](COC(=O)[C@@H](CC=C)CC(=O)OC(C)(C)C)Cc1c[nH]c2ccccc12 | inactive: -0.271% |  |
| COc1cc(/C=C2/SC(=S)N(Cc3ccccc3)C2=O)ccc1O |  | inconclusive: 22.4 µM [inhibitor, single point] |
